Data reported in patent US20120269830A1, “CONJUGATES WITH IMPROVED PHARMACOKINETIC PROPERTIES” (priority 2009, published 2012).

Molecular target: GLP-1 receptor (Homo sapiens, UniProt P43220)
Experiment: GLP-1 receptor / β-Arrestin β-galactosidase complementation reporter assay (DiscoverX PathHunter Express)
Assay type: cell-based
Conditions: GLP-1R reporter cells, FIG. 16
Excerpt: Common bioactivities for GLP-1 involve typical Gs-linked second messenger systems and reporter assays. GLP-1 receptor, like many GPCRs are subject to β-Arrestin binding that contributes to signal cessation following ligand stimulation. In this reporter assay GLP-1 receptor recombinantly fused to an amino terminal fragment of β-galactosidase (donor), while β-Arrestin is recombinantly fused to an amino terminal deletion mutant of β-galactosidase. When both of these recombinant constructs are present in cells the interaction of β-Arrestin and the GPCR following ligand stimulation forces the complementation of the two β-galactosidase fragments resulting in the formation of a functional enzyme that converts the β-galactosidase chemiluminescent substrate to detectable luminescent signal (DiscoverX-PathHunter Express).
A frozen aliquot of cells expressing GLP-1R/β-galactosidase (donor) and β-Arrestin/β-galactosidase (Acceptor) were seeded in 96-well and allowed to equilibrate for 48 hours at 37° C. in 0.1 ml OCC media (DiscoverX). Next 0.01 ml of test compounds were added to the cells and then incubated for 90 minutes at 37° C. Following the drug treatment 0.055 ml of working detection reagent solution (DiscoverX) was added and then incubated for 90 minutes at room temperature. After this ambient incubation the wells of the resulting plates were read using chemiluminescent plate reader.

Sequence of GLP-1 receptor (P43220 24-463): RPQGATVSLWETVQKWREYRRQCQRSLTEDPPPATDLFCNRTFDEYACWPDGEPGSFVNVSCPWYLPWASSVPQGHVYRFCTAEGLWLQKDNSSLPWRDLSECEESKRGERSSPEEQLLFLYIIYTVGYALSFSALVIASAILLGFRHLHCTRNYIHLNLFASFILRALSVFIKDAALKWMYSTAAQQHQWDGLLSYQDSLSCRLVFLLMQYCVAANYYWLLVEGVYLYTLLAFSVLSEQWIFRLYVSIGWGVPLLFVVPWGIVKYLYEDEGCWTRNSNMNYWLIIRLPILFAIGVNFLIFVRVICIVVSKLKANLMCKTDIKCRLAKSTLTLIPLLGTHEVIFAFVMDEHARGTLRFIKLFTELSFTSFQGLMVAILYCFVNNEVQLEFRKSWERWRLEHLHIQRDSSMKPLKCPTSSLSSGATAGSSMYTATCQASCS

B1: GLP-1 (Ser8) Surrobody with a 7 amino acid “GGSGGGS” linker: GLP-1 (Ser8) Surrobody with heptapeptide Gly-Gly-Ser-Gly-Gly-Gly-Ser linker (SEQ ID NO: 28) (protein)
chain: HSEGTFTSDVSSYLEGQAAKEFIAWLVKGRGGGSGGGSSVTHVFGSGTQLTVLSQPKATPSVTLFPPSSEELQANKATLVCLMNDFYPGILTVTWKADGTPITQGVEMTTPSKQSNNKYAASSYLSLTPEQWRSRRSYSCQVMHEGSTVEKTVAPAECS
heavy: [here about 100 residues without letters]YFDYWGQGTLVTVSSASTKGPSVFPLAPCSRSTSESTAALGCLVKDYFPEPVTVSWNSGALTSGVHTFPAVLQSSGLYSLSSVVTVPSSSLGTKTYTCNVDHKPSNTKVDKRV[here human IgG4 Fc without letters]
- potency relative to GLP-1 Ser8 positive control peptide (90 minutes at 37° C.): equivalent potency
- potency relative to similar molecule with 2 amino acid GA linker: better potency
